The list shows a part of the results. Single values are uncertain, as repeats are few or missing.

This passage reports cell count results from the supplement of paper PMC4604168 (melanoma cell lines).
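Note: cell number obtained by counting DAPI-stained nuclei in high-throughput microscope images with image analysis software, screen run in 1,536-well plates.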

One assay has as its system SkMel5. Put plainly: cell count relative to DMSO control; melanoma cells; higher = more viable cells. The note with it: library dose: low library concentration; 72 h.
Turning to `Nc1nc(F)nc2c1ncn2[C@@H]1O[C@H](CO)[C@@H](O)[C@@H]1O` [fludarabine] + O=C(Nc1cccc(Cl)c1)Nc1ncc(CCNc2ncnc3ccsc23)s1 [SNS314] (first compound 0.2 µM, partner dose 0.0008 µM), the cell count came out at 46%.
Still for that read-out and setting: next, `CC(=O)O[C@@]12CO[C@@H]1C[C@H](O)[C@@]1(C)C(=O)[C@H](O)C3=C(C)[C@@H](OC(=O)[C@H](O)[C@@H](NC(=O)OC(C)(C)C)c4ccccc4)C[C@@](O)([C@@H](OC(=O)c4ccccc4)[C@H]21)C3(C)C` [Docetaxel] + CC(C)CCN1c2nc(Nc3cc(F)c(O)c(F)c3)ncc2N(C)C(=O)C1C [BID1870] (first compound 0.0001 µM, partner dose 0.2 µM): 73.8%.
On to `Nc1ncn([C@H]2C[C@H](O)[C@@H](CO)O2)c(=O)n1` [decitabine] + COc1ccc(-c2ccc3c(N4CCOCC4)nc(N4C[C@@H](C)O[C@@H](C)C4)nc3n2)cc1CO [KU0063794] (first compound 0.1 µM, partner dose 0.02 µM), for which the cell count amounted to 86.9%.
Same read-out and setting: next, `Nc1ccn([C@@H]2O[C@H](CO)[C@@H](O)C2(F)F)c(=O)n1` [gemcitabine] + CC1(C)NC(=O)N(c2ccc([N+](=O)[O-])c(C(F)(F)F)c2)C1=O [nilutamide] (first compound 0.0004 µM, partner dose 1 µM): 97.7%; `CC(=O)c1c(C)c2cnc(Nc3ccc(N4CCNCC4)cn3)nc2n(C2CCCC2)c1=O` [palbociclib] + CC(C)(C)c1cnc(CSc2cnc(NC(=O)C3CCNCC3)s2)o1 [SNS-032] (first compound 0.04 µM, partner dose 0.01 µM): 81.5%; `Nc1ccn([C@@H]2O[C@H](CO)[C@@H](O)C2(F)F)c(=O)n1` [gemcitabine] + Cc1ccc(NC(=O)c2cccc(N(C)C)c2)cc1NC(=O)c1ccc(O)cc1 [ZM336372] (first compound 0.0004 µM, partner dose 2 µM): 96.2%.

In the next assay the test system is UACC257. The assay is described as above. The note with it: library dose: low library concentration; 72 h.
The molecule `CC(=O)O[C@@]12CO[C@@H]1C[C@H](O)[C@@]1(C)C(=O)[C@H](O)C3=C(C)[C@@H](OC(=O)[C@H](O)[C@@H](NC(=O)OC(C)(C)C)c4ccccc4)C[C@@](O)([C@@H](OC(=O)c4ccccc4)[C@H]21)C3(C)C` [Docetaxel] + CN(NC(=O)CC(=O)NN(C)C(=S)c1ccccc1)C(=S)c1ccccc1 [STA4783] (first compound 0.0001 µM, partner dose 0.006 µM) yielded a cell count of 35.7%.
The same measure, in the same setting: next, `CC(=O)O[C@@]12CO[C@@H]1C[C@H](O)[C@@]1(C)C(=O)[C@H](O)C3=C(C)[C@@H](OC(=O)[C@H](O)[C@@H](NC(=O)OC(C)(C)C)c4ccccc4)C[C@@](O)([C@@H](OC(=O)c4ccccc4)[C@H]21)C3(C)C` [Docetaxel] + Cc1ccc(NC(=O)c2cccc(N(C)C)c2)cc1NC(=O)c1ccc(O)cc1 [ZM336372] (first compound 0.0001 µM, partner dose 2 µM): 48.7%; `Nc1ncn([C@H]2C[C@H](O)[C@@H](CO)O2)c(=O)n1` [decitabine] + CO[C@@H]1[C@H](N(C)C(=O)c2ccccc2)C[C@H]2O[C@]1(C)n1c3ccccc3c3c4c(c5c6ccccc6n2c5c31)C(=O)NC4 [Midostaurin] (first compound 0.1 µM, partner dose 0.08 µM): 75.4%; `Nc1ccn([C@@H]2O[C@H](CO)[C@@H](O)C2(F)F)c(=O)n1` [gemcitabine] + CCc1ccc(CCOc2ccc(CC3SC(=O)NC3=O)cc2)nc1 [pioglitazone] (first compound 0.0004 µM, partner dose 2 µM): 77.5%.
On the same count and under the same terms, with `CC(=O)c1c(C)c2cnc(Nc3ccc(N4CCNCC4)cn3)nc2n(C2CCCC2)c1=O` [palbociclib] + C=CCn1c(=O)c2cnc(Nc3ccc(N4CCN(C)CC4)cc3)nc2n1-c1cccc(C(C)(C)O)n1 [MK1775] (first compound 0.04 µM, partner dose 0.02 µM) the figure was 62.5%.
As for `CC(=O)c1c(C)c2cnc(Nc3ccc(N4CCNCC4)cn3)nc2n(C2CCCC2)c1=O` [palbociclib] + Oc1cc(-c2nc(-c3ccccc3)[nH]c2-c2ccncc2)ccc1Cl [L779450] (first compound 0.04 µM, partner dose 0.2 µM), the cell count came to 83.2%.
